Experimental findings from ChEMBL document CHEMBL4888484, “Replenishing the malaria drug discovery pipeline: Screening and hit evaluation of the MMV Hit Generation Library 1 (HGL1) against asexual blood stage Plasmodium falciparum ,using a nano luciferase reporter read-out” (2022) are described below.

Screen size: about 150,000 compounds; about 540 (0.36%) showed an effect of 50% or more. This is one part of the list.

In the assay the test system is Plasmodium falciparum. Nature of the assay: Primary screen in NF54 nanoGlo assay, in single point, at 2uM, 72h; a lower Z score goes with more inhibition. It counts as functional, Erythrocyte. The settings on record: timepoint 72 hour.
What is called % Inhibition is the change of the read-out against control, counted positive when it falls. Regarding `CC1(C)C[C@]1(CNC(=O)c1cnc(C2CC2)nc1)c1ccccc1`, the “% Inhibition” value is -20% and the Z score is 1.92.
On to `Cc1nc(C)c(F)c(NCCCOC(C)C)n1`, for which the “% Inhibition” value is listed as 5% and the Z score is -0.66.
`Cc1ccc(-c2nc(C)c(C(=O)O)c(=O)[nH]2)o1`: the “% Inhibition” value was -9% and the Z score is 1.16.
With `COC(=O)N1CCC(NCc2nc3ccccc3n2C)CC1`, the “% Inhibition” value was -4% and the Z score turned out to be 0.62.
As to `COc1cc([C@H]2C(=O)N(C3CCCC3)CC(=O)N2CCc2ccc(Cl)cc2)ccc1OC(C)C`, the “% Inhibition” value turned out to be 0% and the Z score is -0.03.
As to `O=C(NCc1ccncc1)c1csc2nc(-c3ccccc3Cl)cn12`, the “% Inhibition” value is given as -18% and the Z score amounted to 2.43.
For `Cc1[nH]c(=O)c(C(=O)N[C@H](CO)Cc2c[nH]c3ccccc23)c(C)c1Cl`, the “% Inhibition” value is -7% and the Z score was 1.26.
`Cc1nccn1CCCC(=O)Nc1ccn(C(C)(C)C)n1`: the “% Inhibition” value is listed as 0% and the Z score was -0.04.
Consider `Cc1cc(CN)cc(NC(=O)CNC(=O)NC2CCCCC2)c1`, for which the “% Inhibition” value is listed as -1% and the Z score turned out to be 0.08.
Taken in the same sequence, the figures for `O=C([C@@H]1CCCCn2nnnc21)N1CCC(c2ncon2)CC1` were -6% and 0.8.
Turning to `COC(CNC(=O)N(C)C(C)c1ccncc1)c1cccc(Cl)c1` (stereo unspecified), the “% Inhibition” value is reported as 1% and the Z score was -0.15.
With `CCS(=O)(=O)N1CCC[C@H](c2cc(-c3ccc(F)cc3)n[nH]2)C1`, the “% Inhibition” value is 2% and the Z score is listed as -0.29.
For `Cc1nnc(CN(C)[C@H]2CCN(C(C)(C)C)C2=O)n1C`, the “% Inhibition” value is -24% and the Z score was 3.61.
Turning to `CN1CCNC(=O)C[C@@H]2CN(S(=O)(=O)c3ccc(Cl)c(Cl)c3)C[C@@H]2n2cc(nn2)Cn2cccc(c2=O)C1=O`, the “% Inhibition” value was -8% and the Z score was determined as 1.43.
With `O=S(=O)(c1ccc(F)cc1)N1CCC2(CC1)C[C@@H](Oc1cnccn1)CCO2`, the “% Inhibition” value was -5% and the Z score stood at 0.83.
On to `COc1cccc(CN2CCOC[C@@H]2CC(=O)NCc2c(C)n[nH]c2C)c1`, for which the “% Inhibition” value is listed as -7% and the Z score is 1.31.
As to `CCOc1ccccc1NC(=O)c1oc2ccccc2c1NC(=O)C(c1ccccc1)c1ccccc1`, the “% Inhibition” value is recorded as -13% and the Z score worked out at 2.41.
Regarding `O=C(CC(c1ccccc1)c1ccccc1)N1CCCN(C2CCC2)CC1`, the “% Inhibition” value is listed as -7% and the Z score is 1.27.
Regarding `CCN(CCNC(=O)c1nc(C)oc1C)c1ccccc1`, the “% Inhibition” value is listed as -12% and the Z score came to 1.64.
Taken in the same sequence, the figures for `O=C(CC(F)(F)F)N1CC[C@@H](c2cccs2)S(=O)(=O)CC1` were -16% and 2.81.
As for `CCc1ccc(CNC(=O)c2ccc(-c3noc(-c4ccccc4)n3)s2)cc1`, the “% Inhibition” value is 7% and the Z score is on record as -0.86.
As to `CCCCNC(=O)c1cnn(C(C)C)c1N`, the “% Inhibition” value is on record as 3% and the Z score is given as -0.33.
For `Cc1ncc(C(=O)N2C[C@@H](C)N(CCO)[C@@H](C)C2)c(C)n1`, the “% Inhibition” value is given as -3% and the Z score is on record as 0.26.
On to `Cc1ccc(C(=O)N(C)CCCNC(=O)OC(C)(C)C)o1`, for which the “% Inhibition” value is listed as -3% and the Z score is listed as 0.6.
For the compound `CC(C)Oc1cncc(-c2ccc3c(c2)CNC3)c1`, the “% Inhibition” value worked out at 11% and the Z score was -1.65.
With `Brc1ccc([C@@H]2C[C@H](c3ccc(OCc4ccccc4)cc3)n3ncnc3N2)cc1`, the “% Inhibition” value is given as -6% and the Z score amounted to 1.13.
In the case of `O=C(NCCCN1CCCC1=O)C(=O)Nc1cccc2nonc12`, the “% Inhibition” value was -13% and the Z score worked out at 1.42.
As to `O=C(NC[C@@H]1C[C@H](F)CN1C(=O)c1n[nH]c2c1CCC2)C1CCCCC1`, the “% Inhibition” value was -6% and the Z score amounted to 0.62.
Taken in the same sequence, the figures for `O=C1OCCN1c1ccccc1NS(=O)(=O)NCc1ccccc1` were -9% and 1.16.
Turning to `Cc1ccsc1NC(=O)OC(C)(C)C`, the “% Inhibition” value is given as 35% and the Z score is -4.49.
In the case of `CCc1ncc2c(NCc3ccco3)nccn12`, the “% Inhibition” value is reported as -13% and the Z score was determined as 1.4.
Taken in the same sequence, the figures for `O=C(c1cccc(Br)c1)N1CCN(Cc2csc(-c3ccco3)n2)CC1` were -7% and 0.7.
Taken in the same sequence, the figures for `c1ccc(-c2ncc3c(n2)CCC[C@@H]3NCc2ncc[nH]2)cc1` were -18% and 1.67.
For the compound `CCOc1ccc(N2C[C@@H](c3nnc(NC(=O)COc4ccccc4C)o3)CC2=O)cc1`, the “% Inhibition” value was -16% and the Z score is listed as 2.63.
Take `Cc1ccc(-c2ncc(C(=O)NCc3c(C)n[nH]c3C)c(O)n2)cc1`: the “% Inhibition” value was determined as 10% and the Z score is recorded as -1.44.
In the case of `Cc1nc2n(n1)CCCC2NC1CCCc2sccc21` (stereo unspecified), the “% Inhibition” value is recorded as -5% and the Z score is listed as 0.41.
The corresponding values for `CNc1nccc(OCc2ccccc2)n1` are 38% and -4.96.
Regarding `O=C(NCc1ccccc1-c1ccsc1)c1cccnc1`, the “% Inhibition” value is on record as -3% and the Z score worked out at 0.54.
For the compound `CN1CCC(OCCCNC(=O)[C@]2(c3ccccc3)CC23CCCC3)CC1`, the “% Inhibition” value amounted to 1% and the Z score was -0.13.
Consider `CN1C[C@@H](Nc2c(F)cc(C#N)cc2F)CCC1=O`, for which the “% Inhibition” value was -5% and the Z score worked out at 0.56.
Take `O=C(c1ccc(F)cc1Cl)N1C[C@@H]2CN(C3CCCCC3)C[C@]2(C(=O)O)C1`: the “% Inhibition” value is reported as -7% and the Z score is recorded as 1.38.
On to `O=C(c1cccnc1)N1CCC2(CC1)CN(Cc1ccccc1)C[C@@H]2c1ncco1`, for which the “% Inhibition” value is recorded as -16% and the Z score was found to be 2.32.
As to `CCn1ccnc1CN1C[C@H](C(=O)O)[C@@H](C2CCCCC2)C1`, the “% Inhibition” value worked out at 9% and the Z score is -1.52.
